Measured values reported in the RNAGym collection of RNA variant scans (doi:10.1073/pnas.2313332121).
This sample is rich in variants without activity.

B1: TPR 5TU (parent)
chain: GGAUCUUCUCGAUCUAACAAAAAAGACAAAUCUGCCACAAAGCUUGAGAGCAUCUUCGGAUGCAGAGGCGGCAGCCUUCGGUGGCGCGAUAGCGCCAACGUUCUCAACUAUGACACGCAAAACGCGUGCUCCGUUGAAUGGAGUUUAUCAUG

Variants of: B1
Assay: polymerase ribozyme fitness, log enrichment relative to wild type (log ratio); higher = more active; in vitro selection for triplet polymerase activity
How it was run: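 Fitness compares each genotype's enrichment to that of the wild type on a logarithmic scale, averaging replicates with inverse-variance weights. The logarithm is base 2. Enrichment came from Illumina sequencing of input and output libraries after one triplicate round of in vitro selection, which included frozen incubation at −7 °C, of PCR-built, transcribed mutant libraries of each subunit of a heterodimeric triplet polymerase ribozyme. Only genotypes with ≥10 input reads and ≥1 read per output were kept.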

| Variant | polymerase ribozyme fitness (log ratio) |
| --- | --- |
| U4G U9C U90C C93G A113C | ≤ -4.2 |
| C5G C8G C18U A26U A30C G46A U56G C87G C93U C95U | ≤ -4.2 |
| U4G C35G A47G U111G U145A | ≤ -4.2 |
| C5A C14A C72U G88U C103U | ≤ -4.2 |
| A3U C5G C14U U44G G50C G74A C95G A97G A119G | ≤ -4.2 |
| U4C A16G A21G A41C A49U U56A G86A U135A A150G | ≤ -4.2 |
| C5G G46A C54U G83U C85G | ≤ -4.2 |
| A3U C5A A39U A49U G59A G84A C103U U127C U139A | ≤ -4.2 |
| C5G A30C C108A G141U | ≤ -4.2 |
| U4A A21U A30U G50C G92U U109G U127G U139C | ≤ -4.2 |
| U4A A16C C79G A91C | ≤ -4.2 |
| C5G A21U U31A G65C C69G A91C G92C G126U A138G | ≤ -4.2 |
| A3U G62U G94A | -1.08 |
| U4G C54G A64U C95U U134G | ≤ -4.2 |
| U4C A22G C32U U55A G86C G136A U146C U151C | ≤ -4.2 |
| C5A A52C G80C G83U | ≤ -4.2 |
| C5G C93A C99G C118A C132U U134G G143C | ≤ -4.2 |
| A3U U31A A49C G68U G92A C95G A137C | ≤ -4.2 |
| U4C A24U G71A A91U A147C | ≤ -4.2 |
| C5G A52G G83C C93U | -3.55 |
| A3U U33G C57U C95A C105U A119C | ≤ -4.2 |

| Variant | polymerase ribozyme fitness (log ratio) |
| --- | --- |
| U4C A17G A19C A37G G62C G70U U77C | ≤ -4.2 |
| C5G A12U C57G G58A G74U C75U C105U A147U | ≤ -4.2 |
| C5G A40U A91U U144C | ≤ -4.2 |
| U4C A23C U55G G94A G143U U148C | ≤ -4.2 |
| U4G A16U A49C A97G | ≤ -4.2 |
| C5G A21G U61G C79A C87G | ≤ -4.2 |
| U4C A22U A73U C96G A120G | -2.21 |
| U4A U31G A37U A47C G68A C96A U135A A150C | ≤ -4.2 |
| C5A A16U U56G G58C G59U C93A C116G G124U | ≤ -4.2 |
| U4C C14A C93G | ≤ -4.2 |
| A3U A47C C51U U55A C87A C116G C132G | ≤ -4.2 |
| U4A G11U G50U U61A C76U C85U C96A A115G | ≤ -4.2 |
| C5A A12G A23C G84A | -4.02 |
| U4C A66C C87A U134C | ≤ -4.2 |
| C5G G92A C96A | -3.11 |
| U4C G46A A47U A66G C87G | ≤ -4.2 |
| U4G A47U G58C C93G | -4 |
| C5G A29G U33G A39C C85G G86U C99A | ≤ -4.2 |
| U4G U77C G124U U135G U139A | ≤ -4.2 |
| A3U U4G U55A A119C | -1.29 |
| C5A A49U C57A | -0.832 |

| Variant | polymerase ribozyme fitness (log ratio) |
| --- | --- |
| C5G C14G A41C G48C G126A G140A | ≤ -4.2 |
| U4G C27A U31G A39C G50A A52C C85G G88C A110U A121C C125A G140A | ≤ -4.2 |
| A3U G46A A113U | -3.1 |
| C5A A47U G84A G124U | -1.14 |
| U4G U31C C35U G68A A115G C132G | ≤ -4.2 |
| U4G A19G A73C C87U | ≤ -4.2 |
| U4C U6A C14U A26U C54A C72G G94U G100C A106U | ≤ -4.2 |
| C5G G83A C85A C129G A150G | ≤ -4.2 |
| U4C C5A C87A A91G U145A | ≤ -4.2 |
| U4G C79A C93A | ≤ -4.2 |
| A3U C87G A113C | -4.19 |
| U4G C27U A52U C72U C76A C85A | ≤ -4.2 |
| U4A U44A G92A A119U U148G | ≤ -4.2 |
| A3U C36A A40C G94A | ≤ -4.2 |
| U4C C35A C75U G112U U144C U145C | ≤ -4.2 |
| U4C C10G A28G G34U G48C U55G G86C U148G | ≤ -4.2 |
| U4G C14U A52U C63U C85U | -4.13 |
| A3U U9G A30U C54G C87G U90A C96G U134G | ≤ -4.2 |
| C5G A39C C87A G126A G136C | ≤ -4.2 |
| C5G A40G U55A A66U U82A G83C C95G G141A | ≤ -4.2 |
| U4G C8A U31A U55A C87U U101C G133C | ≤ -4.2 |

| Variant | polymerase ribozyme fitness (log ratio) |
| --- | --- |
| U4G A24G U44A U56G G94A A138C | ≤ -4.2 |
| A3U G67U A91G C99U G124U | ≤ -4.2 |
| U4C C32G G46A C79A C87A A89U C105U A120G | ≤ -4.2 |
| A3U C8A A12G A28U C54U C75G C76G C95U | ≤ -4.2 |
| A3U U9C A24U A39U A52C A107G | ≤ -4.2 |
| C5G A17U A29U C72U U139C G143A | ≤ -4.2 |
| A3U U7A U53A G83C C105G | ≤ -4.2 |
| C5A G42A C54A U61G G92U C149A | ≤ -4.2 |
| C5A A37U C51U U56A C79A C96G C116G G133C | ≤ -4.2 |
| A3U G83C | -0.632 |
| U4C A12G A73G C93U G152A | -3.07 |
| A3U U7A C8A C63U U90G | ≤ -4.2 |
| C5A U13G C27A G34A G42C C96A | ≤ -4.2 |
| C5G G50U A66U A73G C87A G143C | ≤ -4.2 |
| A3U G25C A64C U78G A91U | ≤ -4.2 |
| U4G C10A U56A G133U G143U | ≤ -4.2 |
| U4C C85G C99U C125G | -3.5 |
| C5A U15C A40G U45A C76U G83A A142C | ≤ -4.2 |
| U4G C18G G42A A73C A91G C95G C99G C118A | ≤ -4.2 |
| U4A C96A A98C A115U A142U G152C | ≤ -4.2 |
| A3U C35A G83A U148G | ≤ -4.2 |
